# Measured values reported in the supplement of paper PMC3334620.
# In all, about 33,000 sequences were measured (“E-score (-0.5 to 0.5)”: median about -0.036, highest 2% from about 0.37 on). Some of the results follow.
# Target: T1, Yer064c (UniProt P40041)
# T1 sequence: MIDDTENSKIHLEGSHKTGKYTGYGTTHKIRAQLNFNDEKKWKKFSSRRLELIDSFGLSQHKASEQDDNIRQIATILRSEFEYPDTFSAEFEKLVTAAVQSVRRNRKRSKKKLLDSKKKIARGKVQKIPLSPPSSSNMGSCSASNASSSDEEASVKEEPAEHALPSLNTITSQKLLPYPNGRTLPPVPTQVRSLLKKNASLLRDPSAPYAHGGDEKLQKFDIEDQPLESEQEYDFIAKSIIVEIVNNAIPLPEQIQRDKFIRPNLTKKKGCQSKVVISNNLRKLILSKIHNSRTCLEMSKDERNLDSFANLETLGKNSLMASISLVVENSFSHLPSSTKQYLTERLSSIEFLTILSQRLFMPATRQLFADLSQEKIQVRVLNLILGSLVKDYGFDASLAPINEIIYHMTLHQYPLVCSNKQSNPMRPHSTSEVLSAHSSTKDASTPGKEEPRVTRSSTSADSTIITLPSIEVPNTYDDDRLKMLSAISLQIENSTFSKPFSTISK
# Assay: PBM E-score (8-mer binding enrichment) (E-score (-0.5 to 0.5)); higher = stronger / more preferred TF binding; most listed sequences are background and not binding sites
# Conditions: protein concentration: 200 nM; construct: GST-full length
# How it was run: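 Using PURExpress in vitro transcription/translation, GST-tagged yeast transcription factors were made in full-length or DNA-binding-domain form. These were applied at about 100-200 nM to double-stranded universal all-10-mer Agilent arrays, and bound protein was detected with fluorescent anti-GST. Scans were normalised with masliner before the Universal PBM Analysis Suite assigned E-scores to ungapped eight-base words pooled with their reverse complements.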
row,Sequence,PBM E-score
1,GGCGTGAC,0.153
2,GTATAACA,-0.0202
3,ACACTTGC,0.0323
4,GCCGGGTA,-0.0861
5,AGACGGCT,-0.0763
6,CGTCCGGC,-0.238
7,AAACCGGT,-0.156
8,CCGGTTCA,-0.213
9,GAGGTCAA,-0.00997
10,GCGGTCCA,-0.257
11,AGCGTAGG,-0.178
12,GAAGAGGC,-0.256
13,ATCCAACC,-0.134
14,CATCTAGA,0.0209
15,ACTTTTAG,0.109
16,TGTTAACA,0.0752
17,ACGTGTCG,-0.087
18,GATTCGGA,0.11
19,TCCCTCAA,-0.156
20,GCTAGGAC,0.133
21,CCTACCCA,-0.0884
22,GGATATAA,0.0494
23,ATGGTCGC,-0.226
24,CATTGGCC,-0.151
25,ATACTCAG,0.214

row,Sequence,PBM E-score
1,AGAGACCT,-0.0554
2,CCATGATA,-0.117
3,GTGCACCA,-0.178
4,ACATAAGC,0.051
5,GACTCTCA,0.418
6,ACACACAT,0.26
7,GCCTCGGA,-0.311
8,CAGTTGAG,0.0627
9,ACACAGCC,0.00389
10,CGACACAA,0.00733
11,GCTGCGAA,0.00261
12,AGATCACT,0.0464
13,GGTTCTTA,-0.12
14,TACGTCTA,-0.00987
15,GGCCGGGA,-0.134
16,CAGATAGC,-0.0433
17,AAGTACTT,-0.0497
18,AATCACAT,0.398
19,AGGTCGTC,-0.0696
20,AAGCGTGG,-0.0306
21,AGAACGCT,-0.155
22,GACCTACA,-0.0419
23,AAGAAATT,0.119
24,CCAATACG,-0.14
25,GACACGGA,-0.0945

row,Sequence,PBM E-score
1,CTTACCCA,0.209
2,TTCCAGAA,-0.015
3,GAGATACA,0.145
4,AGGATCAG,-0.0168
5,CTGCAATA,0.0482
6,ACTTCAGC,-0.0714
7,GATAGGAA,0.0134
8,GGATTACC,0.116
9,TGTGACAA,-0.0104
10,GTTTCCTA,-0.156
11,ACAGCAAC,0.034
12,ATCCTAAG,0.0883
13,AAAACGGA,-0.0243
14,CATTGTAC,0.124
15,CGTATCAC,-0.0817
16,CATGGTAG,0.153
17,AAAGACGT,-0.00249
18,GATACAAA,0.122
19,CAGCGGGG,-0.287
20,GGGGTCGA,-0.187
21,ATTATCGA,0.0782
22,GACTGAGC,0.24
23,CATCATAC,0.215
24,ACGAAGCA,-0.0559
25,ATATCGAG,0.0408

row,Sequence,PBM E-score
1,AATGCTCT,-0.178
2,CCCTCCTA,-0.145
3,GCAAATAC,-0.125
4,AGAGTTAC,0.0127
5,CATTATAA,-0.0346
6,GCCTAGTA,-0.12
7,GATGGAAC,-0.201
8,AATGTTTG,-0.201
9,ACAGTTGG,-0.2
10,AAGCATAG,-0.195
11,AACATGCT,-0.129
12,GTAACGAA,0.169
13,TAGACAGA,0.149
14,ACCGATTG,0.0282
15,AATTGTCA,0.0267
16,CGGGGCCC,-0.13
17,CAATATTG,0.116
18,AGATTCAA,0.314
19,CCCATACG,-0.2
20,CGTATGCA,-0.122
21,AGAGAGGC,-0.278
22,AAAAGAGT,0.24
23,GAAAGCTC,-0.248
24,CAGCCAGA,-0.0407
25,GAGGGTCA,-0.125

row,Sequence,PBM E-score
1,GTACATGA,0.161
2,CAACGAGG,0.059
3,CATAAGCC,0.0224
4,CACCACGC,-0.0903
5,TCTAGTCA,0.447
6,CTGGCATA,-0.0817
7,GCTCTTAC,0.0598
8,CCGCGGTA,-0.144
9,CAACGAGA,0.0887
10,TGCTCAAA,-0.133
11,ACCCCTCC,-0.0659
12,AAGCCACT,0.0435
13,CTAGCAAA,-0.0659
14,AAGGAGAT,-0.0304
15,ACGAGACT,0.289
16,CATTCGAC,0.105
17,CCGCAGGC,-0.164
18,ACCCTACA,-0.0523
19,AATTGGGC,-0.3
20,CCTAGTGC,-0.129
21,AAGCAGAA,-0.0576
22,GAAAGCTA,-0.199
23,GATTTTCA,0.0899
24,AGACAGTA,0.0971
25,AGGGGTAG,-0.0199

row,Sequence,PBM E-score
1,AACGTCTG,-0.174
2,AATATCAT,-0.0086
3,ACTCAACT,0.337
4,TCCACAAA,0.0257
5,AATCCTAA,0.0553
6,ACGATTTA,0.126
7,GGAATCCA,-0.115
8,GGTAACGA,0.072
9,ACGTATGA,0.213
10,CTACGGCC,-0.305
11,TGAATGCA,0.00125
12,CGTTCCCC,-0.263
13,CGGGGCAC,-0.288
14,CCGGAATC,0.0366
15,CACCCACA,-0.00783
16,CCACGGGA,-0.0711
17,GATTATCC,0.241
18,TAGACCCA,-0.0332
19,AGGTACAC,-0.0614
20,AGGAAGGG,-0.205
21,AAAAAAAA,0.0669
22,ACTGTAGC,-0.0346
23,AATCTTGG,0.0293
24,CGGCCGTA,-0.109
25,CTCTAGCA,0.00221

row,Sequence,PBM E-score
1,CCGCCAGG,-0.33
2,CAGTGAGC,-0.046
3,TCCTCCCA,-0.223
4,ATGGTACA,-0.0386
5,AGGGGTTG,-0.03
6,TGCGACAA,-0.042
7,GAAGAAGC,-0.161
8,ACCCGAAC,0.00326
9,CGCCCCCA,-0.362
10,AACGCGGA,-0.125
11,GGAGCCAA,-0.243
12,GCCGGGGA,-0.272
13,ATAGCATA,-0.0696
14,GCTACTAA,-0.101
15,ATTAGGGG,-0.112
16,CGGTCCCA,-0.0818
17,CCGGCGAA,-0.28
18,ACCCTGTC,-0.102
19,AGTAAGTA,0.168
20,AATCCGGG,-0.239
21,CGTCACGA,-0.0925
22,CTCTCCCC,-0.356
23,AGGCACTC,-0.0297
24,CGGCTACA,-0.00254
25,GCTTTTCA,-0.187

row,Sequence,PBM E-score
1,AATAGATA,-0.0234
2,AATGTTGT,-0.105
3,GTCACGTA,0.311
4,CTCGCGAG,0.16
5,CCGCTGCG,-0.148
6,ACTGGTTC,-0.0373
7,GGAGCCAC,0.00189
8,ACTATTAT,0.141
9,ATCGAGCA,-0.149
10,ATGGTCTC,-0.0418
11,CAAATGGG,-0.0333
12,ATACGTAA,0.0265
13,CCAACCAG,-0.113
14,CGCAGGCA,-0.126
15,CACGCCGA,0.045
16,CTCTCTAC,0.00472
17,ATGGGTGA,0.187
18,CCGACACG,0.00029
19,GTTCCACA,-0.0699
20,GGGCACCA,-0.333
21,CGGTCGCA,-0.248
22,AAAAAATA,-0.00362
23,CGGCGAAG,-0.184
24,GTATTGAA,0.115
25,TATACCAA,-0.0596

row,Sequence,PBM E-score
1,AGTTCTCA,0.179
2,TCTGGCAA,-0.0433
3,GCTATCAA,0.0782
4,AACAAATC,0.145
5,GTCTACCA,0.0416
6,TGTCTCAA,0.29
7,CGCGCGTA,-0.0265
8,AGGTTATG,-0.0963
9,GATCTGGA,-0.221
10,AGCTCGAT,0.014
11,GAAGCTAA,-0.0611
12,CTGTAAAA,0.106
13,GCTACTCC,-0.118
14,ACAGTATA,-0.0459
15,GGACGTCA,-0.0394
16,GGCATCTA,-0.0249
17,ACAAACTA,0.0163
18,ATTCTTAG,0.202
19,ACACCCTG,0.137
